Test results: PubChem BioAssay AID686978 (National Center for Advancing Translational Sciences (NCATS), 2013)
The whole screen tested about 420,000 compounds, of which about 64,000 (15%) were called active. Inconclusive means that the source gave no clear call. Such entries were picked first, then a sample of the others. Calls come from the whole dose curve; as a rule, active = well fitted inhibition curve with a large enough effect; inconclusive = small, poorly fitted or top-dose-only effect; inactive = flat fitted curve, though single readings scatter. Potencies of inconclusive entries are left out as doubtful fits.

Test: qHTS for Inhibitors of human tyrosyl-DNA phosphodiesterase 1 (TDP1): qHTS in cells in absence of CPT; note: nearly all actives have a fitted effect of over 55% in size
Conditions: DT40 Tdp1-/- hTDP1 cells, no CPT, ATP luminescence, 48 h; activity change, negative = growth inhibition: at 46.2 µM (top of the series) unless noted
Summary of the method: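 Readout: luminescence from CellTiter-Glo after 30 min in the dark at RT. Cells: DT40 Tdp1-/- with stable hTDP1, 400/well. Exposure: compounds alone, ≥48 hr, 37 °C.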
% is set by controls: 0 for no effect and ±100 for the full control effect; potency is the fitted concentration of half-maximal effect; tags give direction and shape of the fitted curve.

Row | Structure (SMILES) | Potency | activity change, negative = growth inhibition
1 | Cc1nc(SCC(=O)c2c(N)n(C3CC3)c(=O)[nH]c2=O)[nH]c(=O)c1CCO | inconclusive [inhibitor, single point] | –
2 | O=C(O)CCCCCN1C(=O)CSC1=S | – | inconclusive: -35.1% [inhibitor]
3 | N#Cc1cccc(NC(=O)c2ccc3c(c2)N(Cc2cccc(Cl)c2)C(=O)c2ccccc2S3(=O)=O)c1 | inconclusive [inhibitor, partial curve] | –
4 | COc1cc(CNc2ncnc3c2ncn3[C@H]2CN(Cc3ccc4c(c3)OCO4)C[C@@H](CO)O2)cc(OC)c1OC | inconclusive [inhibitor, partial curve] | –
5 | CCN(CC)C(=O)c1ccc(COc2ccccc2Cl)cc1 | inconclusive [inhibitor, single point] | –
6 | COCCNC(=O)C(NC(=O)C1CCC(C)CC1)C(C)C (stereo not given) | inactive | –
7 | Cc1cc(/C=C2\C(=N)N3N=C(CC(=O)N4CCOCC4)SC3=NC2=O)c(C)n1-c1ccccc1 | inactive | –
8 | CCCCn1c(N)c(N(CCC)C(=O)C2CCCC2)c(=O)[nH]c1=O | inactive | –
9 | CCc1ccc(NC(=O)CN(Cc2ccccc2)S(=O)(=O)c2ccc3nc(C)sc3c2)cc1 | inconclusive [inhibitor, single point] | –
10 | CCCOc1ccc(CCc2n[nH]c(=S)n2-c2ccccc2)cc1 | active: 16.4 µM | –
11 | O=C(CSc1n[nH]c(-c2ccccc2)n1)N1CCOCC1 | inactive | –
12 | CCc1ccc(S(=O)(=O)c2nnn3c2nc(NCc2ccccc2OC)c2cc(Cl)ccc23)cc1 | inactive | –
13 | Cc1ccccc1-c1noc(-c2ccccc2OCC(=O)Nc2ccccc2[N+](=O)[O-])n1 | inactive | –
14 | NC(=O)SCC(=O)Nc1ccc(Cl)c(Cl)c1 | active: 23.1 µM | –
15 | CCc1nc2ccc(C(=O)N3CCN(S(=O)(=O)CC)CC3)cn2c1N(C)CCC(C)C | inconclusive [inhibitor, partial curve] | –
16 | C/C(N)=C(/C#N)C(=O)COC(=O)C1CCN(S(=O)(=O)c2cccs2)CC1 | inactive | –
17 | COc1ccc(C2NC(=O)N(C)C3=C2C(=O)N(c2ccc(C)cc2)C3)cc1 (stereo not given) | inactive | –
18 | Cc1ccc(C2C3=C(CC(C)(C)CC3=O)NC3=C2C(=O)CC(C)(C)C3)o1 | inconclusive [inhibitor, single point] | –
19 | Cc1cc(Br)ccc1Nc1nc(N)nc(N)c1N=O | inconclusive [inhibitor, single point] | –
20 | Clc1ccc2c(NNc3ccccc3Cl)ccnc2c1 | inconclusive [inhibitor, partial curve] | –
21 | CC(NC(=O)CSc1nc(=O)cc(N)n1CCc1ccccc1)c1ccccc1 (stereo not given) | inactive | –
22 | CCOc1ccccc1N1CCN(C(=O)c2cc3c(C)cc(C)cc3[nH]2)CC1 | active: 23.1 µM | –
23 | O=C(Nc1ccc2[nH]c(=S)sc2c1)Nc1ccccc1F | inconclusive [inhibitor, partial curve, poor fit] | –

Row | Structure (SMILES) | Potency | activity change, negative = growth inhibition
24 | Cc1cccc(-c2nnc(SC(C)C(=O)Nc3ccccc3)n2C)c1 (stereo not given) | inconclusive [inhibitor, single point] | –
25 | O=C1c2oc3ccc(Cl)cc3c(=O)c2C(c2cccc(Br)c2)N1CCO (stereo not given) | inconclusive [inhibitor, single point] | –
26 | CSCCC(NC=O)C(=O)NC(C)C(=O)O (stereo not given) | active: 0.651 µM | –
27 | Cn1c(=O)oc2cc(S(=O)(=O)Nc3ccc(O)cc3)ccc21 | inconclusive [inhibitor, single point] | –
28 | CCC(=O)Nc1ccc(C(=O)CSc2nc3ccccc3[nH]2)cc1 | inconclusive [inhibitor, single point] | –
29 | COC(=O)c1ccccc1NC(=O)c1cnn2c1NC(=C1CC1)C=C2C(F)F | inconclusive [inhibitor, single point] | –
30 | CCc1c(-c2cccc(Br)c2)ncn1Cc1cccc(-c2ccccc2)c1 | active: 23.1 µM | –
31 | CCOC(=O)c1[nH]c2ccc(OC)cc2c1NC(=O)c1ccc(OC)c(OC)c1 | inconclusive [inhibitor, single point] | –
32 | NC(N)=NCCCCN=C(N)N | inconclusive [inhibitor, single point] | –
33 | CCOC(=O)c1c(S(=O)(=O)NC2CCN(C(=O)OCC)CC2)c(C)n(C)c1C | inconclusive [inhibitor, single point] | –
34 | C=CCOc1ccc(C2C(C(=O)c3ccco3)=C(O)C(=O)N2c2nnc(C)s2)cc1 (stereo not given) | inconclusive [inhibitor, single point] | –
35 | Cc1ccccc1CSc1nc2cccnc2n1Cc1ccc(C(=O)NCCc2cccs2)cc1 | active: 16.4 µM | –
36 | COc1ccccc1C1C=C(c2ccc(Cl)cc2)Nc2nc(-c3ccc(Cl)cc3)nn21 (stereo not given) | inconclusive [inhibitor, partial curve, poor fit] | –
37 | CCCCOc1ccccc1Cn1c(=O)oc2ccccc21 | inconclusive [inhibitor, single point] | –
38 | O=C(NC1CCCCC1)c1ccc(-c2ccc(Cl)cc2)o1 | inconclusive [inhibitor, single point] | –
39 | CN1CCN(C(=S)Nc2cccc(S(=O)(=O)N(C)C)c2)CC1 | inconclusive [inhibitor, single point] | –
40 | COc1cc(CNCc2ccccn2)ccc1OCc1ccccc1Cl | inconclusive [inhibitor, single point] | –
41 | CC1CCCN(CC(O)COC(c2ccccc2)c2ccccc2)C1 (stereo not given) | inactive | –
42 | CN(C)/N=C/c1ccc(/C=N/NC(N)=S)o1 | inactive | –
43 | C[C@H](CO)N1C[C@H](C)[C@@H](CN(C)S(=O)(=O)c2cn(C)cn2)Oc2cc(Br)ccc2S1(=O)=O | inconclusive [inhibitor, single point] | –
44 | COCCn1c(SCC(=O)c2ccc(Cl)cc2)nnc1C(C)C | active: 20.6 µM | –
45 | CCN(CC)S(=O)(=O)c1ccc2oc(C(=O)NCCN3CCOCC3)c(C)c2c1 | inconclusive [inhibitor, single point] | –
